# About 11,000 (3.1%) of roughly 360,000 compounds were called active. The shares of active, inactive and inconclusive entries below differ from those in the screen. The call rests on the fitted dose curve; in most records, active means well fitted inhibition curve with a large enough effect; inconclusive means small, poorly fitted or top-dose-only effect; inactive means no such curve, though single readings can be large or run the other way. No potency is given beside an inconclusive call; the fits are too rough.
# Target: Schistosoma mansoni thioredoxin glutathione reductase (TGR) (UniProt Q962Y6)
# Experiment: qHTS Assay for the Inhibitors of Schistosoma Mansoni Peroxiredoxins; further: nearly all actives have a fitted effect of over 60% in size
# Conditions: purified TGR, DTNB reduction, TNB absorbance 405 nm; series mostly up to 114 µM
# Procedure, shortened: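 TGR 20 nM + NADPH 100 uM (dispensed conc.), cpd preinc 15 min RT; start with NADPH (500 uM addition) then DTNB (15 mM addition). Kinetic TNB absorbance, 405 nm filter. Four-parameter Hill fit across titration.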
# Potency means the concentration at half of the fitted maximal effect; tags describe the fitted curve by direction and shape.
row,SMILES,Potency
1,CCCOc1cccc(C2C(C(=O)c3ccc(C)o3)=C(O)C(=O)N2CCN2CCOCC2)c1 (stereo not given),"inconclusive [inhibitor, full curve]"
2,COCCNC(=S)Nc1ccccc1[N+](=O)[O-],"inconclusive [inhibitor, partial curve]"
3,COc1cccc(Nc2nc3ccccc3n3cnnc23)c1,inactive
4,Cc1ccc(S(=O)(=O)Nn2c(C)ccc2C)cc1,"inconclusive [inhibitor, full curve, poor fit]"
5,CCC(=O)Nc1ccc(C(=O)CN2CCC(C)CC2)cc1,active: 31.6 µM
6,Cc1ccccc1-c1ccc(/C=C2/SC(N3CCOCC3)=NC2=O)o1,"inconclusive [inhibitor, partial curve]"
7,CCN1CCN(CCNC(=O)c2ccc3nc(-c4cccc(C)c4)c(-c4cccc(C)c4)nc3c2)CC1,inactive
8,COc1ccc(C2C(C#N)=C(SC)NC3=C2C(=O)CC(C)(C)C3)cc1 (stereo not given),"inconclusive [inhibitor, partial curve]"
9,COc1ccc(N2C(=O)CC(Sc3nc4ccccc4s3)C2=O)cc1 (stereo not given),active: 22.4 µM
10,CCCOc1cc(C)c(S(=O)(=O)N2CCN(C)CC2)cc1C,"inconclusive [inhibitor, partial curve]"
11,CC(=O)c1ccc(NC(=O)c2cc(-c3ccc(C)s3)nc3ccccc23)cc1,inactive
12,O=S(=O)(c1ccc(Cl)cc1)c1nc(-c2ccco2)oc1SCc1ccc(F)cc1,"inconclusive [inhibitor, full curve, poor fit]"
13,COc1ccc(C)cc1NC(=O)C(NCC1CCCO1)c1ccccc1 (stereo not given),inactive
14,CC(C)CNc1nnnc2c1sc1nc(N3CCOCC3)c3c(c12)CCCC3,inactive
15,COc1ccccc1/C=N/NC(=O)C1=NNC(c2ccccc2)(c2ccccc2)C1,"inconclusive [inhibitor, partial curve, poor fit]"
16,CCCCn1c(SCC(=O)Nc2cc(NC(=O)c3ccco3)ccc2C)nc2ccccc2c1=O,"inconclusive [inhibitor, partial curve, poor fit]"
17,CO/N=C(/COc1ccc(F)cc1)c1ccc(OC)cc1,active: 25.1 µM
18,O=C(Nc1cccc(S(=O)(=O)N2CCCCC2)c1)c1ccc2ncsc2c1,inactive
19,C=CCNC(=S)NC(=O)c1csc([N+](=O)[O-])c1,"inconclusive [inhibitor, partial curve]"
20,COc1cc(OC)cc(C(=O)Nc2cc3c(cc2N2CCCC2)n(C)c(=O)c(=O)n3C)c1,"inconclusive [inhibitor, partial curve, poor fit]"
21,COc1cccc(/C(O)=C2/C(=O)C(=O)N(Cc3cccnc3)C2c2ccco2)c1 (stereo not given),"inconclusive [inhibitor, partial curve, poor fit]"
22,CCOC(=O)c1sc(=S)n(-c2ccccc2)c1NC(C)=O,active: 44.7 µM
23,CSc1ccc(CCNC(=O)CCn2c(=O)c3cccn3c3ccc(F)cc32)cc1,inactive
24,COCCCN1C(=O)c2[nH]nc(-c3ccccc3O)c2C1c1cccc(Cl)c1 (stereo not given),inactive

row,SMILES,Potency
1,O=C(NCC(=O)N(Cc1ccccc1)C(C(=O)NC1CCCC1)c1ccncc1)c1ccco1 (stereo not given),"inconclusive [inhibitor, partial curve]"
2,CCC(C)(C)n1nnnc1C(c1ccc(OC)c(OC)c1)N1CCN(c2cccc(OC)c2)CC1 (stereo not given),"inconclusive [inhibitor, partial curve]"
3,CC1CC(C)(C)NC(=S)N1CCCC(=O)Nc1ccc(F)cc1 (stereo not given),"inconclusive [inhibitor, single point]"
4,O=C(Nc1ccccc1N1CCOCC1)c1ccc2ccccc2n1,"inconclusive [inhibitor, single point]"
5,CC1CCCC(NC(=S)Nc2cccc(S(=O)(=O)N(C)C)c2)C1C (stereo not given),"inconclusive [inhibitor, partial curve]"
6,O=C(O)c1ccccc1-c1ccccc1C(=O)NCc1ccco1,active: 50.1 µM
7,[O-]/[N+](=C/c1ccco1)c1ccccc1,"inconclusive [inhibitor, partial curve, poor fit]"
8,CN(C)/C=C/C1=CC(=O)CC(C)(C)C1,"inconclusive [inhibitor, partial curve]"
9,COCc1cc(C)nc2sc(C(=O)Nc3cccc(OC)c3)c(N)c12,"inconclusive [inhibitor, single point]"
10,COC(=O)C1=C(C)NC(=O)/C1=C\c1cc(C)n(-c2cc(C)cc(C)c2)c1C,"inconclusive [inhibitor, partial curve]"
11,CCN1C(=O)CSC1=Nc1ccccc1Cl,inactive
12,C/C(=N\NC(=S)NCc1ccccc1)c1ccccc1,inactive
13,CCOc1ccc(OCCC(=O)OCC(=O)NC2CCCC2)cc1,"inconclusive [inhibitor, single point]"
14,Cc1cc(C(=O)O)ccc1-n1c(C)cc(C=C2C(=O)c3ccccc3C2=O)c1C,"inconclusive [inhibitor, partial curve]"
15,COc1cc(O)c(C(C)=O)c(CC(=O)O)c1,"inconclusive [inhibitor, partial curve, poor fit]"
16,O=C(O)c1cc2nccc(-c3ccco3)n2n1,"inconclusive [inhibitor, partial curve]"
17,COc1ccc(N2CCN(C(=O)c3ccc(CNS(=O)(=O)c4cccc(OC)c4)cc3)CC2)cc1,inactive
18,O=C(Cc1ccccc1F)Nc1cc(S(=O)(=O)N2CCCC2)ccc1Cl,inactive
19,CCOCCCNC(=O)C1CCN(C(=O)c2cc3sccc3n2C)CC1,inactive
20,CCCc1[nH]nc2c1C(/C(C)=C/c1ccccc1)C(C#N)=C(N)O2 (stereo not given),"inconclusive [inhibitor, partial curve]"
21,COc1ccc(CCNC(=O)CCCn2c(=O)c3cccn3c3ccccc32)cc1OC,"inconclusive [inhibitor, single point]"
22,Cc1c(CC(=O)NCC(C)C)c(=O)oc2cc3c(cc12)CCC(C)(C)O3,inactive
23,COc1ccc(-n2c(SCc3ccccn3)nc3c(c2=O)SCC3)cc1OC,inactive
24,O=C(Cn1c(-c2ccco2)nc2ccccc21)N1CCCCC1,"inconclusive [inhibitor, full curve]"

row,SMILES,Potency
1,COc1ccccc1N1CCN(C(=O)C2CCN(S(=O)(=O)Cc3ccccc3)CC2)CC1,inactive
2,COCc1nnc(NC(=O)CCS(=O)(=O)c2ccccc2)s1,inactive
3,CCOC(=O)N1CCN(C(=O)c2cc(COc3ccc(OC)cc3Cl)on2)CC1,"inconclusive [inhibitor, partial curve]"
4,Cc1ccc(C(=O)n2ncn(C)c2=S)cc1,active: 17.8 µM
5,Cc1ccc(S(=O)(=O)N2CCN(C(=O)c3n[nH]c(=O)c4ccccc34)CC2)cc1,inactive
6,Cc1cccc(C2C=C(c3ccc(C)c(C)c3)Nc3nnnn32)c1 (stereo not given),active: 39.8 µM
7,O=C(NCc1ccc2c(c1)OCO2)c1ccc(NC(=O)C2CCCO2)cc1 (stereo not given),inactive
8,Cc1ccn(CC(=O)N2CCCC(Nc3ccc(F)c(F)c3)C2)n1 (stereo not given),"inconclusive [inhibitor, partial curve, poor fit]"
9,CC(c1ccccc1F)n1cc(C(=O)NCCc2ccco2)nn1 (stereo not given),"inconclusive [inhibitor, single point]"
10,CCOC(=O)N1CCN(C2=C(NS(=O)(=O)c3ccc(NC(C)=O)cc3)C(=O)c3ccccc3C2=O)CC1,"inconclusive [inhibitor, partial curve, poor fit]"
11,COc1cc(C2C(C(C)=O)=C(O)C(=O)N2CCc2ccc(OC)c(OC)c2)ccc1O (stereo not given),"inconclusive [inhibitor, partial curve]"
12,CCN1C(=O)[C@H]2[C@@H](c3ccc(-c4ccc(F)cc4)cc3)N3CCCC[C@@]3(C(=O)OC)[C@H]2C1=O,"inconclusive [inhibitor, partial curve]"
13,CCN(CC(=O)Nc1c(C(=O)OC)[nH]c2ccc(C)cc12)c1ccc2c(c1)OCO2,active: 50.1 µM
14,CCOc1ccc(-c2c(C)n(-c3ccc(OCC)cc3)c3[n+]2CCCCC3)cc1,"inconclusive [inhibitor, single point]"
15,COc1ccc(CNC(=O)CCCN2C(=O)NC3(CCCC3)C2=O)cc1,inactive
16,Cc1ccc(/C=C2\SC(=S)N(C3CCS(=O)(=O)C3)C2=O)o1 (stereo not given),"inconclusive [inhibitor, full curve]"
17,C=CCOc1ccc(C2/C(=C(\O)c3ccc(F)cc3)C(=O)C(=O)N2CCCN(C)C)cc1 (stereo not given),"inconclusive [inhibitor, partial curve]"
18,CC(=O)N1N=C(c2ccco2)CC1c1ccc(Cl)o1 (stereo not given),"inconclusive [inhibitor, partial curve]"
19,CCSc1nc(NCCN(C)C)c2c3c(sc2n1)COC(C)(CC)C3 (stereo not given),"inconclusive [inhibitor, single point]"
20,CN(Cc1nccs1)C(=O)CC1C(=O)NCCN1Cc1ccc(-c2ccccc2)cc1 (stereo not given),"inconclusive [inhibitor, full curve]"
21,COc1ccc(NC(=O)c2c(NCc3sccc3C)sc3c2CCCC3)c(OC)c1,"inconclusive [inhibitor, full curve, poor fit]"
22,CCN(CCO)Cc1csc2ccc(Br)cc12,"inconclusive [inhibitor, single point]"
